Measurements reported in PubChem BioAssay AID1347417 (National Center for Advancing Translational Sciences (NCATS), 2020).
The campaign covered roughly 120,000 compounds. About 5,300 (4.4%) were called active. The shares of active, inactive and inconclusive entries below differ from those in the screen. The call rests on the fitted dose curve; in most records, active means well fitted inhibition curve with a large enough effect; inconclusive means small, poorly fitted or top-dose-only effect; inactive means no such curve, though single readings can be large or run the other way. Potencies of inconclusive entries are doubtful fits and often do not repeat.

Assay: qHTS Primary assay for Inhibitors of Plasmodium falciparum Dd2 growth in vitro; further: nearly all actives have a fitted effect of over 65% in size
Details: P. falciparum Dd2 growth, SYBR Green, 72 h; series mostly up to 28.9 µM
Summary of the method: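 Infected erythrocytes (Dd2, 0.3% parasitemia, 2.5% hematocrit final) are added to compound in RPMI-1640/Albumax II medium, grown 72 h at 37C in low oxygen, then lysed with saponin/Triton-X containing SYBR Green and read by fluorescence.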
Potency means the concentration at half of the fitted maximal effect; tags describe the fitted curve by direction and shape.

SMILES	Potency
Cn1cnnc1CC1CCNCC1	inactive
CCOc1ccc(NC(=O)CN(Cc2ccccc2)S(=O)(=O)c2ccc(Cl)cc2)cc1	inconclusive: 12.6 µM [inhibitor, single point]
Cc1cc(C)cc(NS(=O)(=O)c2ccc3c(c2)OCC(C(=O)N2CCCC2)O3)c1 (centres undefined)	inconclusive: 11.2 µM [inhibitor, partial curve]
Cc1ccccc1CN1CCc2nc(N3CCN(c4ccccn4)CC3)ncc2C1	inconclusive: 17.8 µM [inhibitor, single point]
CC(C)Oc1ccc(C2(C(=O)N3C[C@@H](C)[C@](O)(C4CC4)C3)CCCC2)cc1	inconclusive: 17.8 µM [inhibitor, partial curve, poor fit]
Cc1c(C2=CCN(S(=O)(=O)c3ccc(Br)cc3)CC2)c2ccccc2n1CC(=O)N1CCCC1	inactive
C=CCC1(CO)CCCN(CCOc2ccc(C)cc2Cl)C1 (centres undefined)	active: 8.91 µM
CS(=O)(=O)N1CCCC1c1noc(CCC(=O)NCc2ccncc2)n1 (centres undefined)	inactive
COc1ccc(CCN2CC(NCc3ccc(-n4cccn4)cc3)CC2=O)cc1 (centres undefined)	inactive
COc1cccc(-c2cc(-c3c(C)noc3C)cc3c2C(=O)N(C)C3)c1OC	inconclusive: 22.4 µM [inhibitor, single point]
COc1ccc2c(c1)CC(C(=O)NCCN1CCN(c3cccc(Cl)c3)CC1)CO2 (centres undefined)	inconclusive: 10 µM [inhibitor, single point]
Cc1ccc(Cn2c(C3CCN(C(=O)c4ccc(C(C)(C)C)cc4)CC3)n[nH]c2=O)cc1	active: 2.51 µM
O=C(Nc1cccc(Cl)c1)N1CCOC(CN(CC2CC2)C(=O)c2cccc(F)c2)C1 (centres undefined)	active: 4.47 µM
O=C(c1ccc2ncccc2c1)N1CC2CC(C1)[C@H]1CCCC(=O)N1C2 (some centres undefined)	inactive
CN(C(=O)c1ccc(F)cc1)C1CCCc2ccccc21 (centres undefined)	inactive
Cc1ccc(-c2nc3ccccn3c2Nc2ccc3c(c2)OCCO3)s1	inactive
Cc1ccc(Oc2nc3c(c(=O)n(Cc4ccccc4)c(=O)n3C)n2C)cc1C	inconclusive: 1.78 µM [inhibitor, full curve, poor fit]
CCN(C(=O)C1CCC(CNS(=O)(=O)c2cccc3nsnc23)CC1)c1ccccc1 (centres undefined)	inconclusive: 2.24 µM [inhibitor, full curve, poor fit]
CCN(C(=O)C1CCC(CNS(=O)(=O)c2cccc3nsnc23)CC1)c1cccc(C)c1 (centres undefined)	inconclusive: 3.98 µM [inhibitor, full curve, poor fit]
Cc1ccc(CN2C(=O)c3ccccc3Sc3ccc(C(=O)NCc4ccco4)cc32)cc1	inconclusive: 12.6 µM [inhibitor, single point]
CN(Cc1ccccc1)C(=O)C[C@@H]1CCNC[C@@H]1Cc1cc(-c2ccc(F)cc2)on1	inactive
Cc1ccc(S(=O)(=O)N(CC(O)Cn2c3ccccc3c3ccccc32)c2cccc(C(=O)N(C)C)c2)cc1 (centres undefined)	active: 8.91 µM
COc1ccc(C2=NN(S(C)(=O)=O)C(c3cn(-c4ccccc4)nc3-c3cccs3)C2)cc1 (centres undefined)	inconclusive: 17.8 µM [inhibitor, single point]

SMILES	Potency
O=C(CC1CCCC1)N1CCCCCC1CN1CCCC1 (centres undefined)	inconclusive: 1.12 µM [inhibitor, partial curve, poor fit]
CC(C)C[C@@H]1N[C@H](C(=O)NCCN(C)C)Cc2cn(CC3CC3)c3cccc1c23	inconclusive: 35.5 µM [inhibitor, single point]
COc1ccccc1CNC[C@H]1Cn2cc(-c3ccc(C)cc3)nc2CO1	inconclusive: 35.5 µM [inhibitor, single point]
CCN(C(=O)Cn1c(SCC(=O)Nc2ccc(OC)cc2)nc2ccccc21)c1cccc(C)c1	active: 10 µM
COc1ccc(C(=O)N[C@@H]2CCC[C@@H]2C(=O)NCc2ccccc2C)cn1	inactive
CC(=O)Nc1cccc(-c2cnc3n[nH]c(-c4sccc4C)c3n2)c1	inactive
COc1cccc(CC(=O)NCCn2ccn3nc(-c4ccc(C)c(C)c4)cc3c2=O)c1	inconclusive: 11.2 µM [inhibitor, single point]
C=CCN(Cc1nc(-c2cccc(Cl)c2)oc1C)C1CCS(=O)(=O)C1 (centres undefined)	inconclusive: 12.6 µM [inhibitor, partial curve]
COCC[C@]1(O)CCN(C(=O)CCCc2cccs2)C[C@H]1C	inactive
O=C(c1ccccc1F)N1CC(Oc2ccc(F)cc2F)C1	inconclusive: 12.6 µM [inhibitor, partial curve]
Cc1cccc(-c2cc(C3CCN(C(=O)Nc4ccccc4Cl)CC3)[nH]n2)c1	inconclusive: 0.0708 µM [inhibitor, full curve, poor fit]
Cn1nccc1C(=O)N1CCCC(Cc2noc(-c3ccccn3)n2)C1 (centres undefined)	inactive
CCOc1ccccc1NC(=O)N(C)CCc1c(C)nn(CC)c1C	inactive
COCCNC(=O)C1(C)CN(C)Cc2ccc(Nc3ccccc3)nc21 (centres undefined)	inconclusive: 3.16 µM [inhibitor, single point]
CCOc1ccc(Cl)cc1CNCCCSc1nnnn1C	inconclusive: 3.16 µM [inhibitor, full curve]
CCc1nn(-c2ccc(OC)cc2)c(Oc2ccccc2F)c1CCC(=O)N1CCSCC1	inactive
CC(=O)N1CCC(N2CCC3(CC2)CN(Cc2ccccc2)CC3CO)CC1 (centres undefined)	inactive
COc1ccc2[nH]c(CNC(=O)C(c3ccc(F)cc3)N(C)C)cc2c1 (centres undefined)	inconclusive: 7.94 µM [inhibitor, single point]
CN1C[C@@H](NC(=O)Nc2cccc(C#N)c2)C[C@H]1c1nc(-c2ccccn2)no1	inconclusive: 11.2 µM [inhibitor, single point]
CN1CCC2(Cc3ccccc3CN(C(=O)c3ccccc3)C2)C1 (centres undefined)	inconclusive: 5.62 µM [inhibitor, partial curve, poor fit]
O=C(NC1CCCN(c2cc(-c3ccc(F)cc3)[nH]n2)C1)c1ccccc1Br (centres undefined)	inconclusive: 3.16 µM [inhibitor, single point]
Cn1nc(C(=O)NC2CCc3nn(CC4CC4)c(=O)n3CC2)c2ccccc21 (centres undefined)	inactive
CCN(CC)S(=O)(=O)c1ccc2c(c1)N(CC(=O)Nc1ccc(OC)cc1)C(=O)CS2	inconclusive: 10 µM [inhibitor, single point]

SMILES	Potency
Cc1ccccc1CNC(=O)c1oc2c(c1C)-c1nn(Cc3ccc(Cl)cc3)cc1CC2	inconclusive: 17.8 µM [inhibitor, single point]
CCOc1ccccc1CN1CC[C@H](c2n[nH]c(C)n2)[C@H](NC(=O)C2CCOCC2)C1	inconclusive: 3.55 µM [inhibitor, full curve, poor fit]
O=C(C1CC=CC1)N1CC(c2nnc(-c3ccncc3)o2)C2(CCOCC2)C1 (centres undefined)	inconclusive: 20 µM [inhibitor, single point]
Cn1cc(-c2cccc(CO)c2)c2nc(COc3ccc(Cl)cc3)cn2c1=O	inconclusive: 1.12 µM [inhibitor, full curve, poor fit]
CCNC(=O)CN1CCCC(N2CCN(Cc3ccc4c(c3)OCO4)CC2)C1 (centres undefined)	inactive
CC(=O)N1CCc2ccc(C(=O)N3CCC(C)CC3)cc21	inconclusive: 0.0708 µM [inhibitor, single point]
CC(C)NC(=O)c1cc(-c2ccc(S(C)(=O)=O)cc2)c2cnn(C)c2n1	active: 3.16 µM
O=C1Nc2ccccc2CC12CCCN2Cc1ccc(F)cc1 (centres undefined)	inconclusive: 7.08 µM [inhibitor, partial curve, poor fit]
O=C1CC2(CCN(Cc3cccc(-c4ccccc4)c3)C2)C(=O)N1 (centres undefined)	inactive
COc1ccc(CCN2CCCC(CN(C)Cc3cnc[nH]3)C2)cc1 (centres undefined)	inconclusive: 17.8 µM [inhibitor, single point]
Cc1oc(-c2ccc(OC(C)C)cc2)nc1Cn1ccn2nc3c(c2c1=O)CCCC3	inconclusive: 17.8 µM [inhibitor, single point]
O=C(Nc1ccc(Cl)cc1Cl)c1cc(S(=O)(=O)N2CCCCCC2)ccc1F	inactive
CCOc1ccc2c(n1)CCN(C(=O)Nc1ccc(OC)cc1C)C2	inactive
CNC(=O)[C@@H](c1ccc(Cl)cc1)N1CCC[C@H]1C(=O)NCC1CC1	inactive
CCCc1noc(-c2cccn3c(CNC(=O)C4CCC4)nnc23)n1	inconclusive: 1.26 µM [inhibitor, partial curve, poor fit]
CC1=C[C@@H](CN2C(=O)C(C)=C(C)C2=O)[C@H](C(C)C)C[C@H]1Cc1nc2ccccc2[nH]1	inconclusive: 17.8 µM [inhibitor, single point]
CC(C)C(=O)N1CCC(Oc2ccccc2-c2nc(-c3cnccn3)no2)C1 (centres undefined)	inconclusive: 7.94 µM [inhibitor, partial curve, poor fit]
CCCCCOc1ccc(Cn2c(=O)oc3ccc(C)cc32)cc1OC	inconclusive: 11.2 µM [inhibitor, single point]
CCC(=O)N1CCc2cc(Br)cc(S(=O)(=O)N3CCC(C(=O)Nc4ccccc4F)CC3)c21	inconclusive: 17.8 µM [inhibitor, single point]
O=C(c1ccccc1)N1CCC(Cc2noc(C3CC3)n2)C1 (centres undefined)	inactive
COCC1CN(C(C)=O)CC12CCN(C(=O)c1nn(C)c3ccccc13)CC2 (centres undefined)	inactive
CNC(=O)c1cn2c(n1)CN([S+](C)(=O)[O-])CC2	inactive
Fc1ccc(C2Cn3cnc(-c4nc(-c5ccc6c(c5)OCO6)no4)c3CO2)cc1 (centres undefined)	inconclusive: 0.316 µM [inhibitor, partial curve, poor fit]
